Results taken from PubChem BioAssay AID686978 (National Center for Advancing Translational Sciences (NCATS), 2013).
The campaign covered roughly 420,000 compounds. About 64,000 (15%) were called active. Inconclusive means that the source gave no clear call. Such entries were picked first, then a sample of the others. Calls come from the whole dose curve; as a rule, active = well fitted inhibition curve with a large enough effect; inconclusive = small, poorly fitted or top-dose-only effect; inactive = flat fitted curve, though single readings scatter. No potency is given beside an inconclusive call; the fits are too rough.

Assay: qHTS for Inhibitors of human tyrosyl-DNA phosphodiesterase 1 (TDP1): qHTS in cells in absence of CPT; note: nearly all actives have a fitted effect of over 55% in size
Conditions: DT40 Tdp1-/- hTDP1 cells, no CPT, ATP luminescence, 48 h; activity change, negative = growth inhibition: at 46.2 µM (top of the series)
Method in brief: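 Camptothecin absent (DMSO only). Human TDP1-complemented DT40 knockout cells, 400 cells/well, 37 °C for minimum 48 hr; ATP measured via CellTiter-Glo, 30 min dark incubation, luminescence.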
% is set by controls: 0 for no effect and ±100 for the full control effect; potency is the fitted concentration of half-maximal effect; tags give direction and shape of the fitted curve.

Compound	activity change, negative = growth inhibition	Potency
COc1ccc(CCN2CC(C(=O)NCCN3CCNC3=O)CCC2=O)cc1 (stereo unspecified)	inactive: 20.6%	–
COc1ccc(-c2noc(-c3ccc(NCc4ccco4)c([N+](=O)[O-])c3)n2)cc1OC	–	active: 9.2 µM
CC(NC(=O)C12CC3CC(CC(C3)C1)C2)c1ccc(F)cc1 (stereo unspecified)	–	inconclusive [inhibitor, partial curve]
CCn1cnc2cc(NCc3ccncc3)ccc21	inactive: 0.429%	–
Cc1cccc(NC(=O)CSCC(=O)Nc2cc(Cl)ccc2N2CCN(C)CC2)c1	–	inconclusive [inhibitor, single point]
O=C(NCCN1CCOCC1)c1ccccc1N1C(=O)[C@@H]2Cc3c([nH]c4ccccc34)C(c3ccccc3)N2C1=O (stereo partly specified)	–	inconclusive [inhibitor, single point]
COc1ccc(C2/C=C\CN(C(=O)Nc3ccc(C(F)(F)F)cc3)CC(=O)N2Cc2ccc(F)cc2)cc1 (stereo unspecified)	–	active: 13 µM
Cc1cccc(CNC(=O)CCCN2C(=O)c3cccnc3Oc3ccccc32)c1	–	inconclusive [inhibitor, single point]
CCOc1c2ccc(C(=O)NC3CCCc4ccccc43)cc2nn1CC (stereo unspecified)	inconclusive: -31.7% [inhibitor]	–
CCC(=O)c1ccc2ncccc2c1	inactive: -13.3%	–
Cc1cnc(C(=O)N2CCCC(C(=O)c3ccc(C(F)(F)F)cc3)C2)cn1 (stereo unspecified)	–	inconclusive [inhibitor, partial curve]
COC(=O)C1(c2ccccc2)NC(c2cccs2)C2C(=O)N(c3ccccc3)C(=O)C21 (stereo unspecified)	inactive: -7.34%	–
CN(CC(=O)Nc1ccccc1Cl)C(=O)c1cc2c(s1)CCCCC2	–	active: 16.4 µM
Cc1ccc(S(=O)(=O)N(C)C)cc1NC(=O)CSc1ncc(C(F)(F)F)cc1Cl	–	inconclusive [inhibitor, partial curve, poor fit]
CCOc1ccc(C(=O)NCCc2sc(-c3cccc(F)c3)nc2C)cc1OCC	–	inconclusive [inhibitor, single point]
COc1c(Br)cc(C(N)=O)cc1OCc1ccccc1	inactive: -22.4%	–
O=C(OCC(=O)c1c[nH]c2ccccc12)c1cccc(S(=O)(=O)N2CCCCCC2)c1	–	inconclusive [inhibitor, single point]
CCOc1ccc(S(=O)(=O)Nc2cccc(C(=O)NCC(c3ccccc3)N(C)C)c2)cc1 (stereo unspecified)	–	active: 18.4 µM
CCC1(C)Cc2c(sc3nnn(CC(=O)Nc4ccc(C)cc4)c(=O)c23)CO1 (stereo unspecified)	–	inconclusive [inhibitor, partial curve, poor fit]
Cc1c(Cc2ccccc2)c(=O)oc2cc(OCC(=O)N[C@@H](Cc3ccccc3)C(=O)O)ccc12	inactive: -0.22%	–
Cc1cc(C)c(O)c(-c2n[nH]c3c2C(c2cccc(O)c2)N(Cc2ccco2)C3=O)c1 (stereo unspecified)	inconclusive: -35% [inhibitor]	–
COc1cccc(/C=C2\Oc3cc(OC(=O)N4CCOCC4)ccc3C2=O)c1	–	inconclusive [inhibitor, single point]
CCC(CC)c1nnc(NC(=O)CC(C)c2ccccc2)s1 (stereo unspecified)	inactive: -26.5%	–
CC(C)c1cc(C(F)(F)F)nc(NNc2nc(C(C)C)cc(C(F)(F)F)n2)n1	–	inconclusive [inhibitor, single point]

Compound	activity change, negative = growth inhibition	Potency
Cc1nnc2c(NC3CCCCC3)nc3ccccc3n12	–	inconclusive [inhibitor, partial curve]
CO[C@H]1[C@H](NC(=O)c2ccsc2)c2ccccc2C12CCN(Cc1cccc3ncccc13)CC2	–	inconclusive [inhibitor, single point]
O=C(c1ccc(N2CCOCC2)c([N+](=O)[O-])c1)N1CCN(c2ccccc2F)CC1	–	inconclusive [inhibitor, single point]
O=C(CSc1nnc(-c2c[nH]c3ccccc23)o1)c1ccc(-c2ccccc2)cc1	–	inconclusive [inhibitor, single point]
Nc1nc(C(c2ccccc2)c2ccccc2)cs1	–	inconclusive [inhibitor, single point]
O=C(/C=C/NNC(=O)c1ccccc1)c1ccccc1	–	active: 0.82 µM
O=[N+]([O-])c1ccc(NC(=S)NCc2ccncc2)cc1	–	inconclusive [inhibitor, single point]
Cc1ccccc1CC(=O)Nc1ccc2c(c1)c(=O)n(C)n2-c1cccs1	–	active: 3.26 µM
O=C(COc1cccnc1[N+](=O)[O-])Nc1ncc(Cl)cc1Cl	–	inconclusive [inhibitor, single point]
CC(C)C(=O)Nc1sc2c(c1C(N)=O)CCN(Cc1ccccc1)C2	–	inconclusive [inhibitor, single point]
COc1ccc(Cn2c(NCC(C)C)nc3c2c(=O)n(C)c(=O)n3C)cc1	–	inconclusive [inhibitor, single point]
O=C(Cc1ccc(Cl)cc1)Nc1cccc(S(=O)(=O)Nc2ccccc2F)c1	–	inconclusive [inhibitor, single point]
O=C(CCN1CCCCC1)NNC(=O)C12CC3CC(CC(C3)C1)C2	inactive: 0.928%	–
Oc1ccc(/C=C/c2nc(-c3ccccc3O)n(-c3ccccc3)n2)cc1	–	inconclusive [inhibitor, single point]
Cc1ccc(C2=NN(CCC(=O)NCCc3cccc(C)c3)C(=O)CC2)cc1	–	inconclusive [inhibitor, single point]
O=C(COC(=O)CN=C1NS(=O)(=O)c2ccccc21)Nc1ccccc1OC(F)F	inactive: -8.85%	–
O=C(O)CC(c1ccc(Cl)cc1)N1C(=O)CCC1=O (stereo unspecified)	inactive: 1.22%	–
CN(C(=O)CSc1nc2ccc(NC(=O)c3ccccc3)cc2s1)c1ccccc1	–	inconclusive [inhibitor, single point]
CCOC(=O)c1[nH]c2ccc(F)cc2c1NC(=O)C(C)N1CCc2cc(OC)c(OC)cc2C1 (stereo unspecified)	–	inconclusive [inhibitor, single point]
O=C(CSc1oc(-c2cccs2)nc1S(=O)(=O)c1ccccc1)Nc1ccc(F)cc1	–	inconclusive [inhibitor, single point]
COC(=O)c1ccc(Oc2nc(SC)nc(N(C)C)n2)cc1	inactive: -22.2%	–
O=S(=O)(Nc1nc2ccccc2nc1N1CCc2ccccc2C1)c1ccc(Br)cc1	–	active: 18.4 µM
CSc1ncccc1C(=O)Nc1nc2c(C)cccc2s1	–	inconclusive [inhibitor, partial curve]
O=C(c1ccc(Br)cc1)N1CCC(C(=O)N2CCN(c3ccccc3)CC2)CC1	–	inconclusive [inhibitor, single point]

Compound	activity change, negative = growth inhibition	Potency
CCNC(=S)N1CCN(S(=O)(=O)c2ccc(C)c(C)c2)CC1	–	inconclusive [inhibitor, single point]
CCCCOc1ccc(-c2nc(=S)[nH][nH]2)cc1	inactive: 0.215%	–
Cc1cc([N+](=O)[O-])nn1CC(=O)N/N=C/c1ccccc1O	–	active: 18.4 µM
CCOC(=O)N1CCC(NC(=O)CC2C(=O)NCCN2Cc2ccccc2)CC1 (stereo unspecified)	inactive: 0.753%	–
O=c1[nH]cnc2c1[nH]c(=S)n2C1O[C@@H](CO)[C@H](O)[C@@H]1O (stereo partly specified)	inactive: -5.31%	–
COc1ccc(-c2c(C#Cc3ccc(N(C)C)cc3)c3ccccc3n2C)cc1	–	inconclusive [inhibitor, single point]
Cc1nc2ccccc2nc1SCC(=O)c1ccccc1	–	active: 7.31 µM
CCC1CCCCN1C(=O)COc1ccc(F)cc1 (stereo unspecified)	inactive: -0.686%	–
COc1ccc2cc(C(=O)NCc3ccccc3CN3CCCC3)ccc2c1	–	inconclusive [inhibitor, single point]
CC1(C(=O)NS(=O)(=O)c2cccc(OC(F)F)c2)CCN1C(=O)c1ccccc1CCc1ccccc1 (stereo unspecified)	–	inconclusive [inhibitor, single point]
OC(C#CCN1CCCCC1)c1ccccc1 (stereo unspecified)	inactive: -11.3%	–
COc1cc(CN(C(=O)c2ccc(C)cc2)c2ccccn2)cc(OC)c1OC	–	active: 20.6 µM
Cc1ccc(-n2nc(C)c3c(C(=O)Nc4ccc(C)cc4Cl)cc(C)nc32)cc1	–	inconclusive [inhibitor, single point]
Cc1ccc(NC(=O)CN(C)C(=O)c2ccc(OCc3cn4ccccc4n3)cc2)cc1	inactive: -21.5%	–
O=[N+]([O-])c1ccc(N2CCN(Cc3ccccc3)CC2)nc1	–	inconclusive [inhibitor, single point]
CC(=O)NCCc1ccc(-c2csc(NC(=O)C3CC(=O)N(C4CCCC4)C3)n2)cc1 (stereo unspecified)	–	inconclusive [inhibitor, single point]
C[C@H](CO)N1C[C@H](C)[C@@H](CN(C)Cc2ccc(-c3ccccc3)cc2)Oc2ccc(NC(=O)Cn3cnnn3)cc2C1=O	–	inconclusive [inhibitor, single point]
Cc1ccc(NC(=O)C2=C(O)c3sccc3N(C)S2(=O)=O)cc1	–	active: 20.6 µM
COc1cc(/C=C2\CCn3c2nc2cc(C(=O)O)ccc2c3=O)ccc1OC(F)F	inactive: -38.8%	–
COc1ccc(/C=N/NC(=O)c2cccc(OC(F)(F)C(F)F)c2)c(OC)c1OC	inactive: -14.8%	–
COC(=O)N1CCc2c(sc(NC(=O)C3=COCCO3)c2C#N)C1	–	active: 0.92 µM
COc1ccc(C(=O)CC2(O)C(=O)N(CCc3ccccc3)c3ccc(Br)cc32)cc1OC (stereo unspecified)	–	inconclusive [inhibitor, single point]
Cc1ccccc1-c1nc(CN2CCC(C(=O)NCCCN3CCCC(C)C3)CC2)c(C)o1 (stereo unspecified)	–	inconclusive [inhibitor, single point]
